# Among all 330,000 compounds or so, about 4,200 (1.3%) were called active. The inconclusive results got no clear call from the source; some entries with a clear call stand among them for comparison. Calls come from the whole dose curve; as a rule, active = well fitted activation curve with a large enough effect; inconclusive = small, poorly fitted or top-dose-only effect; inactive = no such curve, though single readings can be large or run the other way. Potencies beside an inconclusive call are fits to weak or partial responses and may not hold up.
# Assay: qHTS screen for small molecules that induce genotoxicity in human embryonic kidney (HEK293T) cells expressing luciferase-tagged ELG1; note: nearly all actives have a fitted effect of over 60% in size
# Conditions: HEK293T ELG1-luciferase reporter, luminescence, 16 h; series mostly up to 46 µM
# How it was run: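 Cells (2,000/well) expressing the ELG1-luciferase fusion are dosed by pin tool and kept 16 hr at 37 °C, 5% CO2. Signal comes from ONE-Glo luciferase reagent after 30 min at room temperature.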
# Potency is the fitted concentration of half-maximal effect; tags give direction and shape of the fitted curve.
row,Structure (SMILES),Potency
1,Cc1cccc2c(C(=O)N3CCN(c4ccccc4)CC3)cc(-c3ccncc3)nc12,"inconclusive: 18.3 µM [activator, partial curve, poor fit]"
2,Cc1cccc(NC(=O)C2COc3ccccc3O2)c1 (stereo not given),"inconclusive: 20.6 µM [activator, single point]"
3,Cn1ccnc1SCC(=O)Nc1ccc(SC(F)F)cc1,"inconclusive: 20.6 µM [activator, partial curve, poor fit]"
4,COc1ccc(-c2ccnc(SCC(=O)N3CCN(c4ccccc4)CC3)n2)cc1,inactive
5,COCCNC(=O)C(=O)Nc1cccc(Br)c1,"inconclusive: 18.4 µM [activator, partial curve, poor fit]"
6,CC[C@]12c3[nH]c4cc(CCC(=O)N(C)C)ccc4c3CCN1C(=O)[C@@H](CC(=O)NCC13CC4CC(CC(C4)C1)C3)C[C@@H]2C(=O)N1CCN(C(=O)c2ccco2)CC1,"inconclusive: 16.4 µM [activator, partial curve]"
7,O=C1C(=O)N(CCS(=O)(=O)c2ccccc2)c2ccc(Cl)cc21,"inconclusive: 29.1 µM [activator, single point]"
8,CCN1CCN(C(=O)c2cc3cc4ccc(OC)cc4nc3s2)CC1,"inconclusive: 20.6 µM [activator, partial curve, poor fit]"
9,COc1cccc(/C=N/NC(=O)NC2CCCCC2)c1O,"inconclusive: 20.6 µM [activator, partial curve, poor fit]"
10,CCOCC(=O)Nc1ccc(OCc2ccccc2)cc1,"inconclusive: 16.4 µM [activator, partial curve, poor fit]"
11,O=C(NC(=S)N1CCN(Cc2ccccc2)CC1)c1cccnc1,inactive
12,O=C(Nc1ccc(Cl)cn1)c1ccc2ccccc2n1,"inconclusive: 9.2 µM [activator, partial curve]"
13,CSCCNC(=O)c1ccc(C(C)(C)C)cc1,"inconclusive: 9.2 µM [activator, partial curve]"
14,CC(C)(C)Cc1nnc(NC(=O)c2ccc3c(c2)OCO3)s1,"inconclusive: 1.16 µM [activator, full curve, poor fit]"
15,NC(=O)c1c(NC(=O)c2ccccc2)sc2c1CCC2,active: 5.8 µM
16,CCn1c(=N)c(S(=O)(=O)c2ccc(C)cc2)cc2c(=O)n3ccccc3nc21,inactive
17,O=C(COc1ccc(F)cc1Cl)Nc1ccc(S(=O)(=O)Nc2nccs2)cc1,"inconclusive: 23.1 µM [activator, single point]"
18,COc1ccc(-c2cc(C(=O)Nc3cccc(Cl)c3)no2)cc1,active: 1.83 µM
19,CC(Cc1cccs1)NC(=O)NC1CCCCC1 (stereo not given),"inconclusive: 18.4 µM [activator, partial curve]"
20,Cc1nc2ccc(NC(=O)c3cccs3)cc2s1,"inconclusive: 14.6 µM [activator, partial curve]"
21,CCCCn1c(SCC(=O)N(C)C2CCS(=O)(=O)C2)nc2cc(S(N)(=O)=O)ccc21 (stereo not given),inactive
22,O=C(OCC(=O)C12CC3CC(CC(C3)C1)C2)c1ccc(O)cc1O,active: 23.1 µM
23,Cc1ccc(NC(=O)CNC(=O)c2cccc(C)c2)nc1,"inconclusive: 6.51 µM [activator, partial curve, poor fit]"

row,Structure (SMILES),Potency
1,COc1ccc(-c2csc(NC(=O)CSc3nnnn3C)n2)c(OC)c1,"inconclusive: 20.6 µM [activator, single point]"
2,C/C(=N\NC(=O)C1CCCC1)c1ccc(Cl)c(Cl)c1,"inconclusive: 23.1 µM [activator, partial curve, poor fit]"
3,O=c1[nH]cnc(O)c1C(c1ccc(Br)cc1)c1c(O)nc[nH]c1=O,inactive
4,COCc1cc(C)nc(SCC(=O)Nc2nc(C)cs2)c1C#N,"inconclusive: 1.46 µM [activator, partial curve, poor fit]"
5,O=C1c2ccccc2C(O)N1c1ccc(Cl)cc1 (stereo not given),"inconclusive: 20.6 µM [activator, partial curve, poor fit]"
6,Cc1c(C(=O)Nc2nnc(C3CC3)s2)oc2ccccc12,"inconclusive: 9.2 µM [activator, partial curve, poor fit]"
7,CCCCn1c(N)c(N(CCOC)C(=O)c2cc(CC)c(C)s2)c(=O)[nH]c1=O,inactive
8,CC(=O)N=c1sc2cc(C)ccc2n1C,active: 12.6 µM
9,CCc1cc2c(C)cc(=O)oc2cc1OC(=O)C1CCCN1C(=O)OC(C)(C)C (stereo not given),inactive
10,CCOC(=O)c1cc2c(nc1NC(=S)NCc1ccccc1)CCCC2,"inconclusive: 23.1 µM [activator, partial curve, poor fit]"
11,Cc1ccc(N2C(=S)N=C(Nc3ccccc3C)C23CCOC(C)(C)C3)cc1 (stereo not given),inactive
12,CC(OC(=O)c1ccc2c(c1)OCCO2)C(=O)c1ccccc1 (stereo not given),"inconclusive: 3.26 µM [activator, full curve]"
13,Oc1ccc(Nc2nc(-c3ccc4ccccc4c3)cs2)cc1,"inconclusive: 5.17 µM [activator, single point]"
14,O=C(Nc1ccccc1)N1CCN(c2cccc(C(F)(F)F)c2)CC1,inactive
15,N#CCC(=O)N/N=C\c1ccc(OC/C=C/c2ccccc2)cc1,"inconclusive: 16.4 µM [activator, single point]"
16,O=C1OC(Nc2nc3ccccc3s2)c2ccccc21 (stereo not given),inactive
17,O=C(COc1ccc2c(c1)OCO2)Nc1ccccc1F,"inconclusive: 2.31 µM [activator, full curve]"
18,c1ccc(CCCNc2ncnc3nc[nH]c23)cc1,inactive
19,O=C1c2ccccc2CN1c1ccccc1,"inconclusive: 9.2 µM [activator, partial curve]"
20,CCCCN(CC)CCCNC(=O)c1cc2c(=O)n(C)c3ccccc3c2n1C,"inconclusive: 13 µM [activator, partial curve, poor fit]"
21,Cc1ccc(-c2nc(-c3ccncc3)no2)c(Cl)c1,active: 0.461 µM
22,O=C(COC(=O)c1nc(Cl)c(Cl)c(Cl)c1Cl)c1ccc[nH]1,"inconclusive: 20.6 µM [activator, partial curve, poor fit]"
